Measurements published in PMC12040169 (PLOS Biology, 2025).
Some of the results follow.

system: T1, C. trachomatis L2/434/Bu expressing GFP (CTL2-GFP); set-up: species or system HeLa; C. trachomatis total inclusion area by high-content imaging, normalised to DMSO; conditions: total inclusion area; 28.5 h, 10 µM; inhibitor
T1 construct: L2/434/Bu GFP intracellular growth in HeLa cells
Outline: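 Post-fluorescence-read fixation, DNA staining with Hoechst and high-content imaging; GFP inclusion area and number per well, and nuclei counts, used as proxies for bacterial growth and host viability.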

Row | SMILES | % of control remaining
1 | CCN(C)C(=O)c1cn2cc(-c3cc(C)oc3C)n(C)c(=O)c2n1 [CBK307494] | 63.893
2 | CC(C)(C)c1cc(C(=O)N/N=C/c2ccc(O)c([N+](=O)[O-])c2)[nH]n1 [CBK263844] | 112.142
3 | Cc1ncccc1-c1cc2cccnc2n1CCC(=O)NC1CC1 [CBK282690] | 83.8461
4 | CCOc1ccsc1C(=O)Nc1ccccc1N1CCCNCC1 [CBK036354T] | 91.8824
5 | O=C(Cn1c2ccccc2c(=O)c2ccccc21)Nc1ccc(-n2cncn2)nc1 [CBK295350] | 40.1262
6 | O=C(O)c1ccc(N2C(=O)c3ccc(Oc4ccc(S(=O)(=O)c5ccc(C(=O)O)cc5)cc4)cc3C2=O)cc1 [CBK263603] | 110.364
7 | O=C(CCCn1ccnc1)Nc1ccc(OC2CCCC2)cc1 [CBK281986] | 83.1431
8 | C/C(=N\NC(=O)c1nc(-c2ccccc2)cc(-c2ccccc2)n1)c1ccc(F)cc1 [CBK262826] | 100.611
9 | COc1ccccc1OCC(=O)Nc1cnc(-c2cccc(C)c2)c(-c2cccnc2)n1 [CBK037112] | 119.908
10 | COc1cccc(-n2ncc(-c3cccnc3)n2)c1 [CBK112813] | 96.1864
11 | CSc1cccc(NC(=O)c2sc3nc(C)cc(C)c3c2N)c1 [CBK115349] | 100.085
12 | O=C(Cc1n[nH]c(=O)[nH]c1=O)N/N=C/c1ccc(C(=O)O)cc1 [CBK263525] | 91.6744
13 | CC(O)Cc1nnc(SCC(=O)c2ccc([N+](=O)[O-])cc2)n1-c1ccccc1 (stereo not shown) [CBK267389] | 101.636
14 | COc1cccc(C(NC(=O)Cc2ccc(-n3nnnc3C)cc2)c2ccccc2)c1 (stereo not shown) [CBK285605] | 97.0375
15 | CC(=O)Nc1cccc(NC(=O)c2ccc(CN3CCc4ccccc4C3)cc2)c1 [CBK269534] | 95.3784
16 | CC(C)CCC(=O)Nc1ccc(N2CCN(C(=O)c3ccccc3C(F)(F)F)CC2)nn1 [CBK138629] | 77.407
17 | COc1ccc(OC)c(S(=O)(=O)N2CCN(C(=O)c3cc(-c4ccncc4)nc4c(C)cc(C)cc34)CC2)c1 [CBK267778] | 102.396
18 | O=S(=O)(NCCc1c[nH]c2ccccc12)c1cccc2nsnc12 [CBK057456] | 103.657
19 | COc1ccc(C2CC(c3ccc(NS(C)(=O)=O)cc3)=NN2C(=O)CCCC(=O)O)cc1 (stereo not shown) [CBK297780] | 108.483
20 | COc1ccc(-c2cnc(NCC3CC3)c(C(=O)NCCc3c[nH]c4ccccc34)c2)cc1 [CBK076349] | 99.9973
21 | CC1CCc2n[nH]c(C(=O)NCCCc3ccccn3)c2C1 (stereo not shown) [CBK283194] | 104.186
22 | Cc1ccc(Sc2ncccc2C(=O)Nc2ccnn2Cc2cccnc2)cc1C [CBK296980] | 91.2246
23 | Cc1cc(C)nc(NC2=NCCN2C(=S)Nc2ccccc2)n1 [CBK266481] | 99.4632
24 | CC(=O)NCCCCCC(=O)N1CCN(c2ccc(C(F)(F)F)cc2)CC1 [CBK091312] | 91.2336
25 | FC(F)(F)c1cc(-c2cn3ccnc3c(N3CCOCC3)n2)cc(C(F)(F)F)c1 [CBK066396] | 67.2574
26 | O=C(NC(/C=C/c1ccccc1)c1cc([N+](=O)[O-])c2cccnc2c1O)C1CCCCC1 (stereo not shown) [CBK265333] | 89.3814
27 | Cc1cc(C(=O)Nc2ccccc2N2CCOCC2)c(C)o1 [CBK057243] | 67.2975

Row | SMILES | % of control remaining
28 | Cc1ccccc1CN1CCC(NC(=O)Cn2cc(Br)ccc2=O)CC1 [CBK305716] | 131.871
29 | Cc1nn(Cc2c(F)cccc2Cl)c(C)c1NC(=O)CCCC(=O)O [CBK286838] | 68.5598
30 | Nc1ncc(-c2cccc3ccccc23)nc1NCc1ccccc1 [CBK063565] | 62.3406
31 | O=C(Cn1cc(C(=O)NCc2ccc(F)cc2)ccc1=O)NC1(c2ccccc2)CCCC1 [CBK286081] | 90.3975
32 | Cc1c2c(nn1C)CSc1ccccc1C2=O [CBK006517] | 75.7436
33 | O=C(Nc1ccc(Cl)cc1)N1CCCCC1CO (stereo not shown) [CBK156179] | 93.1296
34 | CC1(C)O[C@@H]2O[C@@H](C(O)CNC(=O)c3ccccc3)[C@@H](O)[C@@H]2O1 (stereo partly shown) [CBK008736] | 59.8386
35 | CCN(CC)CCn1c2ccccc2c2nc3cc(C(=O)O)ccc3nc21 [CBK297496] | 71.6081
36 | COC(=O)n1c(=O)oc2ccc(Cl)cc21 [CBK026774] | 39.2593
37 | Cc1nn(Cc2cccc(C(=O)NCc3ccccn3)c2)c(C)c1Cl [CBK265755] | 123.617
38 | CSCCCNC(=O)N(CCC#N)C1CCCCC1 [CBK156348] | 91.8595
39 | CCN1CCCC1CNC(=O)c1cc(Br)cnc1N(C)C(C)=O (stereo not shown) [CBK076524] | 112.898
40 | O=C(CCOc1ccccc1)Nc1cc(N2CCNCC2)ncn1 [CBK004225T] | 77.6012
41 | CC(C)Oc1ccc(C(=O)N2CCC(COc3ccc(-c4ccc(S(C)(=O)=O)cc4)cn3)CC2)nc1 [CBK161989] | 48.908
42 | Nc1nnc(SCc2nc3ccccc3n2Cc2ccccc2)s1 [CBK264649] | 109.546
43 | NC(=O)C1CCN([C@H]2[C@@H]3OC[C@@H](O3)[C@@H](NCc3ccc(F)cc3)[C@@H]2O)CC1 [CBK288830] | 90.6484
44 | CCOC(=O)N1C(=O)c2ccccc2NC1(C(F)(F)F)C(F)(F)F [CBK025725] | 73.6609
45 | COc1cccc(-c2cnc(N)c(N3CCN(CCN(C)C)CC3)n2)c1 [CBK063561] | 110.482
46 | CC(C)CCc1ccc(C#N)c(=O)[nH]1 [CBK016227] | 103.281
47 | COc1cc(-c2cncc(N3CCCC3CO)n2)cc(OC)c1OC (stereo not shown) [CBK065389] | 136.863
48 | COc1ccc([N+](=O)[O-])cc1-c1ccc(/C=N/NC(=O)Cn2nnnc2N)o1 [CBK262505] | 109.939
49 | CC(C)c1ccc(S(=O)(=O)NC(CC(=O)O)c2ccccc2)cc1 (stereo not shown) [CBK266217] | 118.05
50 | CN1CCN(c2nc(NS(=O)(=O)c3ccc(OC(F)(F)F)cc3)cc3ccccc23)CC1 [CBK002978C] | 95.701
51 | CN(C)S(=O)(=O)c1ccc(C(=O)C2=C(O)C(=O)N(Cc3cccnc3)C2c2ccc(F)cc2)cc1 (stereo not shown) [CBK264715] | 114.766
52 | C=CCn1c(Cc2csc(NC(=O)c3ccc(OC(F)F)cc3)n2)n[nH]c1=S [CBK295338] | 109.716
53 | Cc1nc2c(c(=O)[nH]1)CC[C@@H]1CN(C(=O)c3ccccc3F)C[C@H]21 [CBK284410] | 74.9147
54 | O=C(NCc1ccccn1)c1cc2cc(F)ccc2[nH]1 [CBK107276] | 81.9323

Row | SMILES | % of control remaining
55 | O=C1NC2(CCc3ccccc31)CCN(C(=O)c1ccc(F)cc1)C2 (stereo not shown) [CBK285308] | 88.9659
56 | Fc1ccc(N(CCCN2CCN(c3ncccn3)CC2)c2ccc(F)cc2)cc1 [CBK025127C] | 77.7533
57 | COc1ccc(Cn2cnc3[nH]ncc3c2=O)cc1 [CBK288049] | 93.0411
58 | Brc1ncccc1OCc1ccccc1 [CBK001458] | 66.882
59 | Cc1ccc(-c2nnc([C@H]3CCN(Cc4ccc(CO)o4)C3)o2)cc1 [CBK289399] | 106.121
60 | O=C(CN1CCNCC1)Nc1ccc(Oc2ccccc2)cc1 [CBK267191C] | 137.831
61 | [O-][n+]1cc(-c2ccccc2)[n+]([O-])c2c1CCCC2 [CBK264847] | 115.374
62 | O=C(NCCc1cccs1)N1CCC2(CC1)OCCc1c2[nH]c2ccccc12 [CBK047129] | 98.8327
63 | O=P(O)(O)Cc1ccccc1-c1ccccc1 [CBK012659] | 26.4765
64 | CNC(=O)NC(=O)C(C)NCC1(c2cc(C)ccc2OC)CCOCC1 (stereo not shown) [CBK306318] | 41.9236
65 | Cc1sc2nc(SCc3nc4ccccc4[nH]3)n(Cc3ccco3)c(=O)c2c1C [CBK267554] | 93.3846
66 | O=C(O)C(Cc1ccccc1)N1C(=O)c2cccc([N+](=O)[O-])c2C1=O (stereo not shown) [CBK115372] | 100.627
67 | CN1CCC(NC(=O)c2cccc(NC(=O)C3CCCCC3)c2)C1=O (stereo not shown) [CBK306228] | 68.9617
68 | O=C(O)C1CC1C(=O)N1CCC2(CC1)OCCc1c2[nH]c2ccccc12 (stereo not shown) [CBK047167] | 82.1279
69 | CC(=O)c1ccc(-c2cnc3[nH]c(=O)n(C4CCCCC4)c3n2)s1 [CBK064382] | 111.493
70 | Cc1csc(NC(=O)c2cccn(Cc3cccc([N+](=O)[O-])c3)c2=O)n1 [CBK294414] | 120.492
71 | O=C(O)CCCC(=O)Nc1cc([N+](=O)[O-])ccc1O [CBK265592] | 104.633
72 | CCCNC(=O)CSc1ncccc1C(=O)O [CBK287202] | 101.93
73 | O=C(CCc1cccnc1)N1CCC(F)CC1 [CBK200275] | 91.0886
74 | O=C(/C=C/c1cccc2ccccc12)N1CCCCCC1 [CBK264092] | 107.505
75 | O=C(Cc1ccc(Cl)cc1Cl)NCCc1c[nH]c2ccc(Cl)cc12 [CBK159744] | 84.0399
76 | CC(=O)Nc1nc2cc3c(cc2s1)OCCO3 [CBK287618] | 82.0377
77 | COc1ccc(Oc2nccc(N3CCCN(CCCO)CC3)n2)cc1OC [CBK084158] | 82.6223
78 | CC(C)Nc1cc(OC2CCN(C)CC2)ncn1 [CBK113280] | 104.951
79 | CCOC(=O)c1cnn2c(N)c(C(N)=O)nnc12 [CBK023694] | 19.1373
